{"source": "ChEMBL document CHEMBL5308541", "about": "“MAIP: An Open-Source Tool to Enrich High-Throughput Screening Output and Identify Novel, Druglike Molecules with Antimalarial Activity” (ACS Med Chem Lett, 2023)", "note": "Out of some 150,000 compounds screened, about 540 (0.36%) showed an effect of 50% or more. Some of the results follow."}
{"system": "Plasmodium falciparum", "experiment": "Primary screen in NF54 nanoGlo assay, in single point, at 2uM, 72h; a lower Z score goes with more inhibition", "assay_type": "functional, Erythrocyte", "details": "timepoint 72 hour", "units": {"% Inhibition": "%"}}
{"smiles": "Cc1ncn(C)c1C(=O)N1CCN(CC(=O)N2CCCC2)CC1", "% Inhibition": -13, "Z score": 1.92}
{"smiles": "Cc1ccc(OC2CN(C(=O)c3cnco3)C2)cc1", "% Inhibition": -8, "Z score": 1.72}
{"smiles": "Cc1sc2ncnc(-c3cccc(C(=O)N4CCC5CNCC54)c3)c2c1C", "note": "(stereo unspecified)", "% Inhibition": 5, "Z score": -0.8}
{"smiles": "CC12CC(CN1C(=O)Nc1ccc(CCn3nnc(-c4ccccc4)n3)cc1)C2", "% Inhibition": -3, "Z score": 0.41}
{"smiles": "CN(CCn1ccc2ccccc21)Cc1cnc(N2CCOCC2)s1", "% Inhibition": -8, "Z score": 1.8}
{"smiles": "CCC(=O)[C@@H]1CCCCN1C(=O)c1ccc2cc(OC)ccc2n1", "% Inhibition": 11, "Z score": -1.96}
{"smiles": "CN1CCN(c2cc(NC[C@H]3CN(C4CC4)CCO3)ncn2)CC1=O", "% Inhibition": -8, "Z score": 1.23}
{"smiles": "CCn1c(NCc2ccc(OCc3cccnc3)cc2)nc2cc(F)ccc21", "% Inhibition": -9, "Z score": 1.61}
{"smiles": "Cc1nccn1-c1ccc(C(C)NC2CCN(c3ccccn3)C2)cc1", "note": "(stereo unspecified)", "% Inhibition": 2, "Z score": -0.27}
{"smiles": "Cc1cncc(NC(=O)C(=O)N(c2cccc(N)c2)C2CCCC2)c1", "% Inhibition": -16, "Z score": 2.72}
{"smiles": "Cc1ncnc(NCCCN2CCN(C)CC2)c1C", "% Inhibition": -2, "Z score": 0.4}
{"smiles": "COCCc1noc([C@H](C)NC(=O)c2cc(C)nc3cc(F)ccc23)n1", "% Inhibition": -8, "Z score": 1.34}
{"smiles": "Oc1ccc(-c2ncnc3ccccc23)cc1OC(F)(F)F", "% Inhibition": -1, "Z score": 0.15}
{"smiles": "C[C@H](NC(=O)N1CCC(OC2CCC2)CC1)c1nnnn1C", "% Inhibition": -8, "Z score": 1.66}
{"smiles": "c1nc(NCCNc2nc(C3CC3)ns2)c2ccsc2n1", "% Inhibition": -2, "Z score": 0.37}
{"smiles": "CC(C)(C)OC(=O)N1CCC(C(=O)Nc2ccccc2N2CCN(CCc3ccncc3)CC2)CC1", "% Inhibition": 8, "Z score": -1.62}
{"smiles": "Cn1cc(C(=O)Nc2cccc(CN3CCC(O)CC3)c2)c([C@H]2CCCNC2)n1", "% Inhibition": 9, "Z score": -1.56}
{"smiles": "CN1CCN(C2(CNC3CCN(C(=O)c4ccncc4)CC3)CCCCC2)CC1", "% Inhibition": 0, "Z score": -0.01}
{"smiles": "CC1(O)CCN(c2cc(N3CCN(CCc4ccccc4)CC3)ncn2)CC1", "% Inhibition": -1, "Z score": 0.14}
{"smiles": "Cc1ccc(F)cc1-c1c(-c2ccccc2)ncn1C[C@H]1CC(=O)N(C2CC2)C1", "% Inhibition": -5, "Z score": 1.02}
{"smiles": "Cc1cccc(N2CCC(NC(=O)c3cc(N4CCOCC4)ccn3)CC2)n1", "% Inhibition": -11, "Z score": 1.86}
{"smiles": "CN1CCCc2cc(CNc3cnc4ccccc4n3)ccc21", "% Inhibition": -7, "Z score": 1.56}
{"smiles": "CCCCN1CCn2nc(CNC(=O)c3ccc4oc(C)cc4c3)cc2C1", "% Inhibition": -7, "Z score": 1.15}
